Laboratory results: PMC12352791
Results are given in words; binding and its absence hold for the method and conditions named. Binding seen in cells or lysates may run through a third protein. Some entries that bind do so weakly or less than the wild type. For some of these results: Where a sequence is shown, tags or fusion partners need not be part of it.

Amino acid sequences for entries named in this document (tags omitted). A change or cut given only in a name is not applied to a line headed by its entry.
UniProt Q13546: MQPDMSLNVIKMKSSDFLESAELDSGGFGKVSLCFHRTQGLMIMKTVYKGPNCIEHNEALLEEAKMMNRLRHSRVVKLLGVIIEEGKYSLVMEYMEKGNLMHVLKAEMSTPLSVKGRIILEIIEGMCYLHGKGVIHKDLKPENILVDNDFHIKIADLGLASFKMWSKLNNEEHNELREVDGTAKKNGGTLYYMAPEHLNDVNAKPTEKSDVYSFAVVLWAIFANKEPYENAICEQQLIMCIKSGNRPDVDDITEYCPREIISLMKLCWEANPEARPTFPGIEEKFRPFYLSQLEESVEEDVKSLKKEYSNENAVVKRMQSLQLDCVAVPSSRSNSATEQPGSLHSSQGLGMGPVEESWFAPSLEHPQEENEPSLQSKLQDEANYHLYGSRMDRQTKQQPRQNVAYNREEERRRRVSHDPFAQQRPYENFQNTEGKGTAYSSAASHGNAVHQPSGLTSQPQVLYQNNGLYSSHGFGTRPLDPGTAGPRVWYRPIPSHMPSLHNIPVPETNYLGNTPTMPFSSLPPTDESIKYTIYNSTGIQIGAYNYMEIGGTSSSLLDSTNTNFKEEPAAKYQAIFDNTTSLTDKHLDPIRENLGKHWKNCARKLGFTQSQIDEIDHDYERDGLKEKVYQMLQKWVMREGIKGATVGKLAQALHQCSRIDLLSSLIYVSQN
UniProt Q9Y572: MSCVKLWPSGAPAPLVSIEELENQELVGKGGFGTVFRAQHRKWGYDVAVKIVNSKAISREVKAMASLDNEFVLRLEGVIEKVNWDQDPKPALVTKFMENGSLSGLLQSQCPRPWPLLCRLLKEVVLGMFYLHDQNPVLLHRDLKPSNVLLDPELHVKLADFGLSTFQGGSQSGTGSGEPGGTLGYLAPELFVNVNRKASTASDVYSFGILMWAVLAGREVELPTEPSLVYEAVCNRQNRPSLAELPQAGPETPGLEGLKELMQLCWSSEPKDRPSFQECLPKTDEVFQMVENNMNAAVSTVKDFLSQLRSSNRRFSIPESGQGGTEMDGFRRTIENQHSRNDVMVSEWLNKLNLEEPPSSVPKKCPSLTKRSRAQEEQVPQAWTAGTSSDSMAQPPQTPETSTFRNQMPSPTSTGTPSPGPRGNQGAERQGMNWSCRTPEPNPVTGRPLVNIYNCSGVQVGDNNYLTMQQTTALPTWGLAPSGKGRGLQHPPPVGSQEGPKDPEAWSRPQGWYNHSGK

Tests used:
Flag-USP53 [1] = biological target: T1, Flag-USP53 (UniProt Q70EK8); assay: co-IP; HEK-293T cells cotransfected with Flag-USP53 and HA-RIPK1 or its truncation mutants; anti-Flag IP, Western blotting
T1 sequence: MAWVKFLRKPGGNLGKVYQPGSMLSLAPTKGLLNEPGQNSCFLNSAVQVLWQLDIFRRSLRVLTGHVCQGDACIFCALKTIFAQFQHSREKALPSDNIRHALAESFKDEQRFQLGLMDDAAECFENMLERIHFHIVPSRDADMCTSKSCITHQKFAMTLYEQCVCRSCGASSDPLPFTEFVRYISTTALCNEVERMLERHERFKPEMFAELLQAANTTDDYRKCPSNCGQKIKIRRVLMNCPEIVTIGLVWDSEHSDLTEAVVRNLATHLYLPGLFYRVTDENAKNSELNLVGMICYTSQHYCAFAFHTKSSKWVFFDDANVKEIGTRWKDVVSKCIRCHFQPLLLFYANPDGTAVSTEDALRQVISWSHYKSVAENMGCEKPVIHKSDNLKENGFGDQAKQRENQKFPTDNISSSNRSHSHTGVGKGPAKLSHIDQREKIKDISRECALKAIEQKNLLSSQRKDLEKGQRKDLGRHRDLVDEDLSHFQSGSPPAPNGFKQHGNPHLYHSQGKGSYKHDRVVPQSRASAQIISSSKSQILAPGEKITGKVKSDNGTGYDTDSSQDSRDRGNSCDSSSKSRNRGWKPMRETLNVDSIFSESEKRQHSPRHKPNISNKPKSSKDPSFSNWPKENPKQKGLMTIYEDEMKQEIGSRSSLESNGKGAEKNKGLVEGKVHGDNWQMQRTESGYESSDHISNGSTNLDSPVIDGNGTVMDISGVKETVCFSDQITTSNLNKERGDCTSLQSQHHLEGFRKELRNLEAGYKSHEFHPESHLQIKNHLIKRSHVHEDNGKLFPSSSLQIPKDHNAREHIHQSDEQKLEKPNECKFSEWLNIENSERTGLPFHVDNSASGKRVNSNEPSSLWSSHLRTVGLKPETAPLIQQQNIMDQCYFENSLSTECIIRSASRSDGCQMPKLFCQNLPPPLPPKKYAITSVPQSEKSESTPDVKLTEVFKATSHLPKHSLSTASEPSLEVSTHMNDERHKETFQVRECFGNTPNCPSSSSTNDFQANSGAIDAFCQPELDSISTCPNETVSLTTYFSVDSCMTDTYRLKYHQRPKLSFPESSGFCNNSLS

Flag-USP53 [2] = biological target: T1, Flag-USP53; assay: co-IP; Co-IP of RIPK1 or RIPK1-K377R with USP53 (Fig. S5G); cells and precipitating antibody not given
[3] = biological target: receptor-interacting serine/threonine-protein kinase 1 (RIPK1), endogenous in AC16 cells (human (endogenous in AC16)) (UniProt Q13546); assay: co-IP; endogenous proteins in AC16 cells with or without EtOH (200 mM, 24 h); NP-40 lysis buffer, Protein A/G magnetic beads, overnight at 4 °C
[4] = biological target: receptor-interacting protein kinase 3 (RIPK3), endogenous in AC16 cells (human (endogenous in AC16)) (UniProt Q9Y572); assay: as above
HA-RIPK1 (human) = HA-RIPK1 (human) (UniProt Q13546); assay: co-IP; HEK-293T cells cotransfected with HA-RIPK1 and Flag-USP53 or its truncation mutants; anti-HA IP, Western blotting

For HA-RIPK1 (from UniProt Q13546 1-671), the binding (Flag-USP53 [1]) was “binds” and the binding (Flag-USP53 [2]) was “binds”.

In the case of “HA-RIPK1-K377R (from UniProt Q13546 1-671)”, the binding (Flag-USP53 [2]) is reported as “binds”.

“HA-RIPK1-KD (kinase domain) (from UniProt Q13546 17-289) (domain or fragment)” was tested, and the binding (Flag-USP53 [1]) was “no binding”.

B1: ubiquitin-specific protease 53 (USP53), endogenous in AC16 cells (protein, UniProt Q70EK8 1-1073)
chain: MAWVKFLRKPGGNLGKVYQPGSMLSLAPTKGLLNEPGQNSCFLNSAVQVLWQLDIFRRSLRVLTGHVCQGDACIFCALKTIFAQFQHSREKALPSDNIRHALAESFKDEQRFQLGLMDDAAECFENMLERIHFHIVPSRDADMCTSKSCITHQKFAMTLYEQCVCRSCGASSDPLPFTEFVRYISTTALCNEVERMLERHERFKPEMFAELLQAANTTDDYRKCPSNCGQKIKIRRVLMNCPEIVTIGLVWDSEHSDLTEAVVRNLATHLYLPGLFYRVTDENAKNSELNLVGMICYTSQHYCAFAFHTKSSKWVFFDDANVKEIGTRWKDVVSKCIRCHFQPLLLFYANPDGTAVSTEDALRQVISWSHYKSVAENMGCEKPVIHKSDNLKENGFGDQAKQRENQKFPTDNISSSNRSHSHTGVGKGPAKLSHIDQREKIKDISRECALKAIEQKNLLSSQRKDLEKGQRKDLGRHRDLVDEDLSHFQSGSPPAPNGFKQHGNPHLYHSQGKGSYKHDRVVPQSRASAQIISSSKSQILAPGEKITGKVKSDNGTGYDTDSSQDSRDRGNSCDSSSKSRNRGWKPMRETLNVDSIFSESEKRQHSPRHKPNISNKPKSSKDPSFSNWPKENPKQKGLMTIYEDEMKQEIGSRSSLESNGKGAEKNKGLVEGKVHGDNWQMQRTESGYESSDHISNGSTNLDSPVIDGNGTVMDISGVKETVCFSDQITTSNLNKERGDCTSLQSQHHLEGFRKELRNLEAGYKSHEFHPESHLQIKNHLIKRSHVHEDNGKLFPSSSLQIPKDHNAREHIHQSDEQKLEKPNECKFSEWLNIENSERTGLPFHVDNSASGKRVNSNEPSSLWSSHLRTVGLKPETAPLIQQQNIMDQCYFENSLSTECIIRSASRSDGCQMPKLFCQNLPPPLPPKKYAITSVPQSEKSESTPDVKLTEVFKATSHLPKHSLSTASEPSLEVSTHMNDERHKETFQVRECFGNTPNCPSSSSTNDFQANSGAIDAFCQPELDSISTCPNETVSLTTYFSVDSCMTDTYRLKYHQRPKLSFPESSGFCNNSLS
With B1 the binding [3] was “binds” and the binding [4] was “no binding”.

B2: Flag-USP53 (protein, UniProt Q70EK8 1-1073)
chain: MAWVKFLRKPGGNLGKVYQPGSMLSLAPTKGLLNEPGQNSCFLNSAVQVLWQLDIFRRSLRVLTGHVCQGDACIFCALKTIFAQFQHSREKALPSDNIRHALAESFKDEQRFQLGLMDDAAECFENMLERIHFHIVPSRDADMCTSKSCITHQKFAMTLYEQCVCRSCGASSDPLPFTEFVRYISTTALCNEVERMLERHERFKPEMFAELLQAANTTDDYRKCPSNCGQKIKIRRVLMNCPEIVTIGLVWDSEHSDLTEAVVRNLATHLYLPGLFYRVTDENAKNSELNLVGMICYTSQHYCAFAFHTKSSKWVFFDDANVKEIGTRWKDVVSKCIRCHFQPLLLFYANPDGTAVSTEDALRQVISWSHYKSVAENMGCEKPVIHKSDNLKENGFGDQAKQRENQKFPTDNISSSNRSHSHTGVGKGPAKLSHIDQREKIKDISRECALKAIEQKNLLSSQRKDLEKGQRKDLGRHRDLVDEDLSHFQSGSPPAPNGFKQHGNPHLYHSQGKGSYKHDRVVPQSRASAQIISSSKSQILAPGEKITGKVKSDNGTGYDTDSSQDSRDRGNSCDSSSKSRNRGWKPMRETLNVDSIFSESEKRQHSPRHKPNISNKPKSSKDPSFSNWPKENPKQKGLMTIYEDEMKQEIGSRSSLESNGKGAEKNKGLVEGKVHGDNWQMQRTESGYESSDHISNGSTNLDSPVIDGNGTVMDISGVKETVCFSDQITTSNLNKERGDCTSLQSQHHLEGFRKELRNLEAGYKSHEFHPESHLQIKNHLIKRSHVHEDNGKLFPSSSLQIPKDHNAREHIHQSDEQKLEKPNECKFSEWLNIENSERTGLPFHVDNSASGKRVNSNEPSSLWSSHLRTVGLKPETAPLIQQQNIMDQCYFENSLSTECIIRSASRSDGCQMPKLFCQNLPPPLPPKKYAITSVPQSEKSESTPDVKLTEVFKATSHLPKHSLSTASEPSLEVSTHMNDERHKETFQVRECFGNTPNCPSSSSTNDFQANSGAIDAFCQPELDSISTCPNETVSLTTYFSVDSCMTDTYRLKYHQRPKLSFPESSGFCNNSLS
For B2, the binding (HA-RIPK1 (human)) was “binds”.
